# Results as given in PubChem BioAssay AID1508642 (National Center for Advancing Translational Sciences (NCATS), 2021).
# The campaign covered roughly 43,000 compounds. About 200 (0.47%) were called active. Another 12% or so got no clear call; they are omitted. Calls follow the shape of the dose curve; as a rule, active = well fitted cell-killing curve with a large enough effect; inconclusive = small, poorly fitted or top-dose-only effect, or effect the other way; inactive = flat fitted curve, though single readings scatter. The list shows a part of the results.
# Assay: Cell viability qHTS assay in S16 Pmp22-F2sN cells; also: nearly all actives have a fitted effect of over 65% in size
# Conditions: S16 Pmp22-F2sN Schwann cells (luciferase reporters placed in the Pmp22 gene) viability, CellTiter-Glo, 24 h; series mostly up to 57.5 µM; activity change, negative = cytotoxicity: at the top concentration
# Summary of the method: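 Luminescence from CellTiter-Glo, read by CCD camera after a 15 min room-temperature incubation, served as the viability signal. Reporter Schwann cells (S16 Pmp22-F2sN) had been treated with pin-transferred compounds for 24 h at 37C.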
# % is scaled to controls: 0 for no effect and ±100 for the full control effect.
row,Structure (SMILES),"activity change, negative = cytotoxicity"
1,CCOc1cc2[nH]c(=O)n(CCCCC(=O)N3CCN(c4ccccc4)CC3)c(=O)c2cc1OCC,inactive: 4.69%
2,CCCCOc1ccc(S(=O)(=O)NCc2csc(-c3ccc(OC)cc3)n2)cc1,inactive: -1.32%
3,CCCn1c2ccccc2c2cnn(CC(=O)N(Cc3ccccc3)C(C)C)c(=O)c21,inactive: -7.36%
4,COc1ccc(CCNC(=O)c2ccc(Cn3c(=O)c4ccccc4n(Cc4ccc(C)cc4)c3=O)cc2)cc1OC,inactive: 1.81%
5,Cc1ccc2nc(CN3CCN(C(=O)Nc4ccc(C)c(F)c4)CC3)oc2c1,inactive: -20.8%
6,COCCCn1c(SCC(=O)Nc2ccccc2OC)nc2c(sc3ccccc32)c1=O,inactive: -15.8%
7,CCOc1ccc(CCNC(=O)c2ccc(-c3nc(COc4ccc(C)cc4)c(C)o3)cc2)cc1,inactive: -1.07%
8,COc1ccc(NC(=O)CSc2nc(-c3ccc(F)cc3)c3cccc(C)c3n2)cc1,inactive: -1.53%
9,O=C(Nc1ccc(F)cc1)[C@@H](c1ccccc1)N1Cc2ccccc2C1=O,inactive: -1.98%
10,CCCCN(C)CCCNC(=O)c1cc(-c2cccnc2)nc2ccccc12,inactive: -11.6%
11,COc1ccc(-c2oc3ncn4nc(COc5ccccc5C)nc4c3c2-c2ccc(OC)cc2)cc1,inactive: 5.56%
12,COC(=O)c1ccc(OC)c(Cn2c(=O)n(-c3cccc(Cl)c3)c(=O)c3c4c(sc32)CN(C(C)=O)CC4)c1,inactive: 0.323%
13,CCOC(=O)C1CCCN(C(=O)Cn2ncn3c(cc4sc(CC)cc43)c2=O)C1 (stereo not given),inactive: 17.7%
14,COc1ccccc1CCNC(=O)CCc1c(C)c2cc3c(C)c(C)oc3cc2oc1=O,inactive: -4.44%
15,Cc1ccc(Cl)cc1NC(=O)CN1C(=O)COc2ccc(S(=O)(=O)N3CCCCCC3)cc21,inactive: 7.71%
16,COc1ccc(NC(=O)Cn2c(=O)n(-c3ccc(OC)cc3)c(=O)c3ccc(C(=O)NCc4ccc(C)cc4)cc32)cc1,inactive: 7.65%
17,COc1cc(C(=O)NCCc2csc3nc(-c4ccccc4C)nn23)cc(OC)c1OC,inactive: 4.19%
18,Cc1cc(OCC(=O)N(Cc2ccc(N(C)C)cc2)C2CCS(=O)(=O)C2)cc(C)c1Cl (stereo not given),inactive: -20.6%
19,CC(C)c1ccc(NC(=O)CC2Oc3ccccc3NC2=O)cc1 (stereo not given),inactive: -19%
20,O=C(c1cccs1)c1cn(CCOc2ccccc2Cl)c2ccccc12,inactive: 9.56%
21,CCN(C(=O)C(Cc1ccccc1)NS(=O)(=O)c1cccc2nsnc12)c1ccccc1 (stereo not given),inactive: -21.9%
22,Cc1ccc(NC(=O)C(=O)NCC(c2ccc3c(c2)OCO3)N2CCN(c3ccccc3)CC2)cc1 (stereo not given),inactive: 14.1%
23,Cc1ccc(NC(=O)c2nnn(CC(=O)Nc3ccc(C)c(Cl)c3)c2N)c(C)c1,inactive: 1.69%
24,Cc1ccc(C(=O)n2nc(C)c(S(=O)(=O)N3CCOCC3)c2C)cc1C,inactive: 9.59%

row,Structure (SMILES),"activity change, negative = cytotoxicity"
1,COc1ccccc1N1CCN(C(=O)CCS(=O)(=O)c2cc(Br)cc3c2N(C(C)=O)CC3)CC1,inactive: 16.3%
2,COc1ccc(Cn2c(CO)cnc2SCc2cccc(C)c2)cc1,inactive: -6.4%
3,Cc1nc(N2CCCC2)ncc1C(=O)N1CCN(c2ccccc2F)CC1,inactive: -3.75%
4,O=C(COc1ccc(Cl)cc1)NCC(c1ccco1)S(=O)(=O)c1ccc(Cl)cc1 (stereo not given),inactive: -23.3%
5,COc1ccc(CNC(=O)c2cc3c(=O)n(C)c4ccccc4c3n2C)c(OC)c1,inactive: 2.04%
6,Cc1cc(C)c2oc(-c3ccc(C)c(NC(=O)/C=C/c4ccco4)c3)nc2c1,inactive: 0.426%
7,COCCNC(=O)CCCn1c(SCc2ccccc2Cl)nc2c(sc3ccccc32)c1=O,inactive: 24.4%
8,COc1ccccc1C1CC(=O)N(c2cccc(C(F)(F)F)c2)C2=C1C(=O)OC2 (stereo not given),inactive: -21.7%
9,COC(=O)c1c(-c2ccccc2)c(-c2ccccc2)nn(C)c1=O,inactive: 15.9%
10,COC(=O)c1ccc([C@H]2Nc3ccc(S(=O)(=O)Nc4cccc(C)c4)cc3[C@H]3C=CC[C@H]32)cc1,inactive: 0.44%
11,COc1ccccc1N1CCN(C(=O)c2cnc(N3CCOCC3)c3ccccc23)CC1,inactive: -15.4%
12,CCN1CCSc2ccc(C(=O)NCc3ccccc3Br)cc21,inactive: -2.09%
13,O=c1[nH]c(SCc2cccc(Cl)c2)nc2c1CCC2,inactive: 6.24%
14,Cc1cc(CN2CCN(c3ccc(F)cc3)CC2)cs1,inactive: 7.57%
15,Cc1cccc(N(CC(N)=O)C2SC(=O)N(Cc3cccc(C(=O)O)c3)C2=O)c1 (stereo not given),inactive: 6.99%
16,CCC(=O)Nc1nnc2n1CCS2,inactive: 2.62%
17,Cc1cc(Br)cc2c(C(=O)OCC(=O)c3ccccc3)cc(-c3ccccc3)nc12,inactive: 4.8%
18,Cc1c(-c2nnc(SCC(=O)Nc3ccc(Cl)cc3)o2)nnn1-c1ccc(F)cc1,inactive: 7.19%
19,CCN(Cc1ccccc1)S(=O)(=O)c1ccc(F)c(C(=O)Nc2cc(C(F)(F)F)ccc2Cl)c1,inactive: -0.123%
20,COc1ccc(N2C(=O)CSC23C(=O)N(CC(N)=O)c2ccccc23)cc1 (stereo not given),inactive: 5.7%
21,COC(=O)Cc1c(C)nc2nc(-c3ccc(C)cc3)[nH]n2c1=O,inactive: 0.23%
22,CCOc1cccc2sc(NC(=O)CS(=O)(=O)c3ccc(C)cc3)nc12,inactive: 25.5%
23,COc1ccc(-n2c(=O)c3sc4ccccc4c3n(CC(=O)NC3CCCCC3)c2=O)cc1,inactive: -8.4%
24,CC(C)c1ccc(N2C(=O)N(Cc3ccccc3Cl)c3ccccc3S2(=O)=O)cc1,inactive: 3.39%

row,Structure (SMILES),"activity change, negative = cytotoxicity"
1,COc1cccc(NC(=O)CCNC(=O)Cn2cnc3ccccc3c2=O)c1,inactive: 2.97%
2,CCn1c2ccccc2c2cc(CN3CCN(Cc4cccc(Cl)c4)CC3)ccc21,inactive: -11.6%
3,COc1cc(C(CC(=O)NCc2ccccc2Cl)N2Cc3ccccc3C2=O)cc(OC)c1OC (stereo not given),inactive: 2.58%
4,CCOc1ccccc1CNC(=O)c1ccc(-n2c(C)cc3c2CCC(C)C3)cc1 (stereo not given),inactive: -25.3%
5,COC(=O)c1ccccc1NC(=O)CCCn1nc(C)c2c(C)n(-c3ccccc3)nc2c1=O,inactive: -2.14%
6,Cc1ccc(-c2onc(C)c2C)cc1S(=O)(=O)N1CCN(c2ccccc2F)CC1,inactive: 6.52%
7,COc1cc(OC)cc(-n2c(=O)c3sccc3n(Cc3ccc(F)cc3)c2=O)c1,inactive: 19.3%
8,COC(=O)c1sc(N2C(=O)c3oc4ccc(C)cc4c(=O)c3C2c2ccc(OC)cc2)nc1C (stereo not given),inactive: -6.3%
9,CCCOc1ccc(Oc2nc(NC)nc(N3CCOCC3)n2)nn1,inactive: -9.57%
10,Cc1cc(Cl)ccc1NC(=O)CSc1nc2c(c(=O)[nH]1)CCC2,inactive: -12%
11,Cc1ccc(NC(=O)C(=O)NCC(c2cccnc2)N2CCN(Cc3ccccc3)CC2)cc1Cl (stereo not given),inactive: -14.2%
12,Cc1ccc(C(=O)O)cc1NC(=O)c1nsc2ccccc12,inactive: 8.25%
13,Cc1ccc(Cl)cc1N1CCN(c2nc3ccccc3c3nc(-c4cccnc4)nn23)CC1,inactive: 11.7%
14,COc1ccc(CCNC(=O)CN2C(=O)COc3ccc(S(=O)(=O)N4CCCC4)cc32)cc1OC,inactive: 13.4%
15,Cc1ccc(CNC(=O)c2cc(-c3ccc(C)c(C)c3)nc3ccccc23)cc1,inactive: -18.2%
16,CCCNC(=O)CCc1c(C)nc2nc(CNC(=O)c3ccccc3)nn2c1C,inactive: -0.369%
17,CCOC(=O)c1ccc(NC(=O)CS(=O)(=O)Cc2nc(-c3ccc(C)cc3)oc2C)cc1,inactive: -6.33%
18,Cc1ccc(NC(=O)CN2C(=O)CC(c3ccco3)Sc3ccccc32)cc1Cl (stereo not given),inactive: 22.5%
19,COc1ccc(NC(=O)c2oc3ccccc3c2NC(=O)c2cc3ccccc3o2)c(OC)c1,inactive: -0.792%
20,Cc1ccc(F)cc1NC(=O)CSc1nc(-c2cccs2)cc(C(F)(F)F)n1,inactive: -0.0291%
21,CC(=O)NNc1ncnc2c1cnn2-c1ccccc1,inactive: -0.628%
22,Cc1ccccc1OCC(=O)Nc1c(C(=O)Nc2ccccc2F)oc2ccccc12,inactive: 7.24%
23,COC(=O)c1cnc(N2CCN(c3ccc(OC)cc3)CC2)c2ccccc12,inactive: -1.79%
24,Cc1ccccc1NS(=O)(=O)c1ccc2[nH]cc(C(=O)NCCc3ccccc3)c(=O)c2c1,inactive: -1.55%

row,Structure (SMILES),"activity change, negative = cytotoxicity"
1,COc1ccc(CNC(=O)Cn2c(=O)n3nc(-c4ccc(OC)cc4)nc3c3ccccc32)cc1,inactive: 8.55%
2,CCOc1ccc(C(=O)Nc2ccc3nc(Nc4cccc(C(F)(F)F)c4)cc(C)c3c2)cc1OCC,inactive: 18.1%
3,COc1ccc(-c2c(C)nn3c(C(F)(F)F)cc(-c4ccc(C)cc4)nc23)cc1,inactive: 4.25%
4,COc1ccc(-c2noc(CSc3nnc(C)n3-c3ccc(F)cc3)n2)cc1,inactive: -9.98%
5,COc1ccc(NC(=O)C(c2ccccc2)N(C)C(=O)/C=C\c2ccc3c(c2)OCO3)cc1 (stereo not given),inactive: 0.0571%
6,Cc1cccc(C2=Nc3ccccc3N=C(c3cc(Cl)ccc3O)C2)c1,inactive: -1.78%
7,Cc1oc2c(cc(NS(=O)(=O)c3ccc(C(C)C)cc3)c3ccccc32)c1C(=O)OCc1ccccc1,inactive: -14.9%
8,N#C/C(=C\c1ccc(OCc2ccc(Cl)cc2Cl)cc1)c1nc2ccccc2[nH]1,inactive: 0.143%
9,COc1ccc(NC(=O)c2cnn(-c3ccc(C)c(C)c3)c2C2CCNCC2)cc1OC,inactive: 0.727%
10,CCOc1ccc(-n2c(C)nc3cc(C(=O)NC4CCCC4)ccc32)cc1,inactive: 0.431%
11,COc1ccc(OC)c(CNC(=O)c2cc3c(Cl)nc4ccccc4c3s2)c1,inactive: 20.9%
12,Cc1cccc(NC(=O)/C(C#N)=C/c2ccco2)c1,inactive: -6.98%
13,CCCNC(=O)Cn1nc(-c2ccc(OC)cc2)c2cnc3ccc(F)cc3c21,inactive: 6.1%
14,CCC1CCCCN1C(=O)c1c[nH]c2ccc(S(=O)(=O)Nc3cccc(OC)c3)cc2c1=O (stereo not given),inactive: 2.17%
15,Cc1cc(C)cc(-n2ccn(CC(=O)c3ccc(F)cc3)c(=O)c2=O)c1,inactive: -1.34%
16,COC(=O)c1scc(-c2ccc(C)cc2)c1S(=O)(=O)N1CCN(c2ccc(F)cc2)CC1,inactive: 26.4%
17,Nc1c(C(=O)NCc2cccs2)nnn1CC(=O)Nc1cccc(F)c1,inactive: -5.08%
18,O=C(O)c1ccc(NS(=O)(=O)c2ccc(Cl)c(C(=O)Nc3ccccc3)c2)cc1,inactive: 7.28%
19,Cc1ccc(N(C)S(=O)(=O)c2ccc3[nH]c(=O)ccc3c2)cc1,inactive: 6.29%
20,O=C(c1ccc(CS(=O)(=O)c2ccc(Br)cc2)o1)N1CCN(c2ccc(F)cc2)CC1,inactive: 9.83%
21,COC(=O)c1ccc(CSc2c(C(C)C)cnc3c2c(=O)n(C)c(=O)n3C)cc1,inactive: 9.77%
22,COc1cccc(CN2C(=O)C3(SCC(=O)N3c3ccc(C)c(Cl)c3)c3ccccc32)c1 (stereo not given),inactive: -0.79%
23,Cc1cc(C)n(C(C)CC(=O)Nc2ccc(Cl)cc2C)n1 (stereo not given),inactive: -1.25%
